Source: the RNAGym collection of RNA variant scans (doi:10.1093/nar/gkz1192)
The source gives no read counts; variants with many changes may rest on few reads.

B1: CPEB3 Ribozyme (parent)
chain: UAACAGGGGGCCACAGCAGAAGCGUUCACGUCGCAGCCCCUGUCAGAUUCUGGUGAAUCUGCGAAUUCUGCUGUAUAUCUC

Variants of: B1
Experiment: self-cleavage, relative activity (ratio to wild type); higher = more cleavage; in vitro, sequencing
Summary of the method: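 For each CPEB3 ribozyme variant, relative activity is its cleaved/total read fraction divided by the unmutated ribozyme's. Barcoded error-prone PCR libraries were transcribed by T7 RNA polymerase (5 hours, 37°C) and held in DNase I for 15 min before an EDTA stop, with cleavage occurring throughout. Template-switching reverse transcription and Illumina sequencing were used to read the RNAs. A 5-read minimum applied, and results are the mean of three batches.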

| Variant | self-cleavage |
| --- | --- |
| UAACAGGGGGCUACAGCAGAAGCGUUCACGUCGCAGCCCCUGUCAGAUUCUGGUGAAUCCGCGUAUUCUGCUGUAUAUCUC [C12U U60C A64U] | 0.29 |
| UAACAGGGGGCCCCAGCAGAAGCGUUCACGUCGCGGCCCCGGUCAGAUUCUGGUGAAUCUGCGAAUUCUGCUGUAUACCUC [A13C A35G U41G U78C] | 0.28 |
| UAACAGGGGGCUACAGCAGAAGCAUUCACUUCGCAGCCCCUGUCAGAUUCUGGUGAAUCUGCGAGUUCUGCUGGAUAUCUC [C12U G24A G30U A65G U74G] | 0.08 |
| UAACAGGGGGCUACAGCAGAAGGGUUCACGUCGCGGCCCCUGUCAGAUUCUGGUGAAUCUGCGAAUUCUGCUGCAUAUCUC [C12U C23G A35G U74C] | 0.16 |
| UAACAGGGGGCUACAGCAGAAGCGUUCACGUCGCAGCCCCUGUCAGAUUCUGGUGAAUCUGCGAACUCUGCUGUAUAUCCC [C12U U66C U80C] | 0.4 |
| UAACAGGGGGCUACAGCAGAAGCGUUCACGUCGCAGCCCCUGUCAGAUUCUGGUGAAACUGCGAAUUCUGCUGUGUAUCUC [C12U U58A A75G] | 1.01 |
| UAACAGGGGGCUACAGCAGAAGCGUUCACGCCGCAGCCCCUGUCAGAUUCUGGUGUAUCUGCGAAUUCUGCAGUAUAUCUC [C12U U31C A56U U72A] | 0.13 |
| UAACAGGGGGCCCCAGCGGAAGUGUUCGAGUCGCAGCCCCUGUCAGAUUCUGGUGAAUCUGCGAAUCCUGCUGUAUAUCUC [A13C A18G C23U A28G C29A U67C] | 0.08 |
| UAACAGGGGGCUACAGCAGAAGCGUUCACGUCGCAGCCCCUGUCAGACUCUAGUGAAUCUGCGAAAUCUGCUGUAUAUCUC [C12U U48C G52A U66A] | 0.33 |
| UAACAGGGGGCCCCAGCAGAAGCGUUCACGUCGCAGCCCCUGUCGGAUUCUGGUGAAUCUGCGAAUUCUGCUGUAUAACUC [A13C A45G U78A] | 0.81 |
| UAACAGGGGGCUACAGCAGAAGCGUUCACGUCGCAGCCCCUGUCAGAUUCUGGUGAAUCUGCGAAUUCUGCUGAAUAUAUC [C12U U74A C79A] | 1.34 |
| UAACAGGGGGCUACAGCAGAAGCGUUCACGCCGCACCCCCUGUCAGAUUCUGAUGAAUCUGCGAAUUCUGCUGUAUGUCUC [C12U U31C G36C G53A A77G] | 0 |
| UAACAGGGGGCUACAGCAGAAGCGCUCACGUCGCAGCCCAUGUCAGAUUCUGGUGAAUCUGCGAAUUCUGCUGUAUAUCUC [C12U U25C C40A] | 0.06 |
| UAACAGGGGGCUACAGCAGAAGCGUUCACGCCGCAGCCCCCGUCGGAUUCAGGUGAAUCUGCGAAGUCUGCUGUAUAUCUC [C12U U31C U41C A45G U51A U66G] | 0.25 |
| UAACAGGGGGCUACAGCAGAAGCGCUCACGUCGCGGCCCCUGUAAGAUUCUGGUGAAUCUGCGAAUUCUGCUGUAUAUCUC [C12U U25C A35G C44A] | 0.08 |
| UAACAGGGGGCUACAGCAGAAGCGUUCACGUCGCAGCGCCUGUCAGAUCCUGGUGAAUCUGCGAAUUCUACCGUAUAUCUC [C12U C38G U49C G70A U72C] | 0.07 |
| UAACAGGGGGCUACAGCAGAAGCGCUCACGUCGCAGCCCCUGUCAGAUUCUUGUGAAUCUGCGAAUUCUGCAGUAUAUCUC [C12U U25C G52U U72A] | 0.2 |

| Variant | self-cleavage |
| --- | --- |
| UAACAGGGGGCUACAGCAGAAGCGCUCACGUCGCAGCCCCUGUCAGAUUCUGGUGAAUCUGCGAAUCCUGCUGUAUAUCUC [C12U U25C U67C] | 0.07 |
| UAACAGGGGGCUACAGCAGAAGCGUUCACGACGCAGCCCCUGUCAGAUUCUGGAGAGUCUGCGAAUUCUGCUGUAUAUCUC [C12U U31A U54A A57G] | 1.06 |
| UAACAGGGGGCUACAGCAGAAGCGUUCACGUCGCAGCCCCCGUCAGAUUCUGGUGAAUCUGCGAAUUCUGCUGUAUAUCCC [C12U U41C U80C] | 1.23 |
| UAACAGGGGGCUACAGCAGAAGCGUUCACGUCGCAGUCCCUGCCAGAUUCUGGUGAAUCUGCGAAUUCUGCUGUAUAUCUC [C12U C37U U43C] | 0.58 |
| UAACAGGGGGCCCCAGCUGAGGCGUUCACGUCGCAGCCCCUGUCAGAUUCUGGUGAAUCUGCGAGUUCUGCUGUAUAUCUC [A13C A18U A21G A65G] | 0.34 |
| UAACAGGGGGCUACAGCAGAAGCGUUCACGUCACAGCCCCUGUCAGAUUCUGGUGAAUCUGCGAAUUCUGCUGUAUGUCUC [C12U G33A A77G] | 0.21 |
| UAACAGGGGGCCCCAGCAGAGGCGUUCUCGUCGCGGCCCCUGUCAGAUUCUGGUGAAUCUGCGAAUUCUGCUGUAUAUCCC [A13C A21G A28U A35G U80C] | 1 |
| UAACAGGGGGCCCCAGCAGAGGCGCUCACGUAGCAGCCCCUGUCCGAUUCUGGUGAAUCUGCGAAUUCCGCUGUAUAUCUC [A13C A21G U25C C32A A45C U69C] | 0.05 |
| UAACAGGGGGCCCCAGCAGAGGCGUUCACGUCGCAGCCCCUGUCAGAUUCCGGUGAAUCUGCGAAUUCUGCUGUAUACCUC [A13C A21G U51C U78C] | 0.43 |
| UAACAGGGGGCCCCAGCAGAAGCGUUCACGUCGCGGCCCCUGUCAGAUUCUGGUGAAUCUGCGAAUUCUGCCGUAUAUCUC [A13C A35G U72C] | 1.23 |
| UAACAGGGGGCUACAGCAGAAGCGUUCACGUCGCAGCCCCUGUCAGAUUCUGGUGAAUCAUCGAGUUCUGCUGUAUAUCAC [C12U U60A G61U A65G U80A] | 0.41 |
| UAACAGGGGGCCCCAGCGGAAGCGUACACGUCGCAGCCACUGUCAGAUUCUGGUGAAUCUGCGAAUUCUGCUGUAUACCUC [A13C A18G U26A C39A U78C] | 0.17 |
| UAACAGGGGGCCCCAGCUGAAGCGUUCACCUCGCAGCCCCCGUCAGAUCCUGGUGAACCUGCGAAUUCUGCUGUAUUUCUC [A13C A18U G30C U41C U49C U58C A77U] | 0.14 |
| UAACAGGGGGCCCCAGCAGAUGCGUUCACGUCGCAGCCCCUGUCAGACCCUGGUGAAUCUGCGAAUUCUGCUGUAUAUCUC [A13C A21U U48C U49C] | 0.18 |
| UAACAGGGGGCUACAGCAGAAGCGCUCACGUCGCAGCCCCUGACAGAUUCUGGUGAAUCUGCGAAUUCUGCUGUAUAUCUC [C12U U25C U43A] | 0.14 |
| UAACAGGGGGCUACAGCAGAAGCGUACACGUCGCAGCCCCUGUCAGACUCUGGUGAGAAUGCGAAUUCUGCUGUAUAUCUC [C12U U26A U48C A57G U58A C59A] | 0.29 |
| UAACAGGGGGCUACAGCAGAAGCGUUCACGGCGCAGCCCCCGUCAGAUUCUGGUGAAUCUGCGAAUUCUGCUGUAUAUCUC [C12U U31G U41C] | 0.86 |
